Results reported in PubChem BioAssay AID488969 (Vanderbilt High Throughput Screening Facility, 2010).
Whole data set: some 110,000 compounds, median “z-score” near -0.1, cut for the highest 2% near 2. Some of the results follow. Calls of active or inactive are those of the source.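 Rule for the calls: active = z-score in the third read window above 3 or below -3; inactive = the rest.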

target: Metabotropic glutamate receptor 8 (Rattus norvegicus) (UniProt P70579); assay: mGluR8 Gi/Go-coupled signaling modulation – cell-based, rat, thallium flux, HTS, primary screen (AID 488969); conditions: HEK293 rat mGluR8, GIRK (G protein-gated inwardly rectifying potassium channel) thallium flux, FluoZin2; at 10 µM; stronger effect = higher value; submaximal glutamate (EC20) added with thallium
UniProt P70579, sequence (P70579 whole entry, looked up): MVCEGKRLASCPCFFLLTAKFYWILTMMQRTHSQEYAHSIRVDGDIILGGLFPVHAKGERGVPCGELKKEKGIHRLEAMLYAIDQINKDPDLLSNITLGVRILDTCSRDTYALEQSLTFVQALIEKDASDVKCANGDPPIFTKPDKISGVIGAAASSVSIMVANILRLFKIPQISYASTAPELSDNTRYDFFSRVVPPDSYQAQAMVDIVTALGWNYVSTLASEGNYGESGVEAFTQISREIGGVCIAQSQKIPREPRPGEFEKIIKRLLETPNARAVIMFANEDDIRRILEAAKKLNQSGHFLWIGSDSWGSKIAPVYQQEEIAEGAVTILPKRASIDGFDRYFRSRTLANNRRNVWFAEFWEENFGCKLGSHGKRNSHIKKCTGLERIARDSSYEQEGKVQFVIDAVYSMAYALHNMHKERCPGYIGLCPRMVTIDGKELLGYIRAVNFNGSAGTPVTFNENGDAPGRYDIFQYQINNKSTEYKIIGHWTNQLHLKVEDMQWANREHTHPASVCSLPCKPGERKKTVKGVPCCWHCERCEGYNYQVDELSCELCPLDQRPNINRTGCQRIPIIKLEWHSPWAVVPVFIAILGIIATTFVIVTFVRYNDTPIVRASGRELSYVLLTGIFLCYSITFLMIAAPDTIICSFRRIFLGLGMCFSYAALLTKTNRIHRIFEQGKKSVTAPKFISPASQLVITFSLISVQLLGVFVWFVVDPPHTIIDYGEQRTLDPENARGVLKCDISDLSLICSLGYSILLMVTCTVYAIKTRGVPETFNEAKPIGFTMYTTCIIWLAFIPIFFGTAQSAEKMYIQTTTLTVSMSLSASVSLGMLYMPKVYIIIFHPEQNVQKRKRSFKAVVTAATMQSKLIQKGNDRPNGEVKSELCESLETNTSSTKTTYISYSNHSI

| SMILES | z-score |
| --- | --- |
| CCOC(=O)N1CCN(C(=O)c2ccc3c(c2)ncn3C2CCCC2)CC1 | -0.295 |
| O=c1ccc(/C=C/c2ccccc2)nn1Cc1ccccc1Cl | -0.137 |
| COc1cc(NC(=O)CSc2nnnn2-c2ccccc2)cc(OC)c1OC | -0.12 |
| CCOC(=O)c1nn(-c2ccc(C)c(C)c2)cc1O | -0.275 |
| CC1(C)OC(=O)C(=CNc2ccccc2F)C(=O)O1 | 0.41 |
| COC(=O)C/C(C)=N/Nc1ccc(S(=O)(=O)N2CCCC2)cc1[N+](=O)[O-] | -0.198 |
| Cn1c(=N)n(CC(O)c2cccc3ccccc23)c2ccccc21 (stereo not given) | 1.78 |
| CN(C)Cc1cc(C(C)(C)C)c(O)c(C(C)(C)C)c1 | -0.0863 |
| CCCCn1c(N)c(N(CC)C(=O)CCc2ccccc2)c(=O)[nH]c1=O | -0.0882 |
| Cc1ccc(NC(=O)N2CCC(C(N)=O)CC2)cc1 | 0.0373 |
| Cc1ccc(NC(=S)NC2CC3CCC(C2)N3Cc2ccco2)cc1C (stereo not given) | 0.268 |
| O=C(CSc1nc2ncccc2[nH]1)Nc1ccc2c(c1)OCCO2 | 0.926 |
| COc1cccc(/C(C)=N/Nc2ncc(Cl)cc2Cl)c1 | -0.259 |
| CCN(CC)C(=O)c1ccc(Nc2nnc(C)c3ccccc23)cc1 | -0.0372 |
| Cc1cccc(NC(=O)CN2C(=S)NC(C)(C)CC2C)c1C (stereo not given) | 0.55 |
| CSc1nnc(C)c(=O)n1COC(=O)COc1ccccc1C | 0.943 |
| COc1cccc(C2=NOC(C(=O)Nc3cccc(C(C)=O)c3)C2)c1OC (stereo not given) | 0.301 |
| COc1cc(NS(=O)(=O)c2ccc(OC)c(C)c2C)c(OC)cc1Cl | -0.393 |
| COc1ccccc1NC(=O)c1ccc(S(=O)(=O)N2CCOCC2)cc1 | 0.986 |
| COC(=O)c1c(NC(=O)Cn2cc([N+](=O)[O-])cn2)sc2c1CCC2 | -0.16 |
| CNc1nc(-c2ccccc2)nc(-c2ccccc2)c1C#N | -0.452 |
| Cc1ccc(NC(=S)NC(=O)c2ccc(-c3ccc(Cl)cc3)o2)c(O)c1 | 1.69 |
| Cc1ccccc1N=C(NOCc1ccccc1)c1nonc1N | -0.423 |
| CCCCn1c(SCC(=O)NCc2ccco2)nc2ccccc2c1=O | active: 6.36 |
| COc1cc2c(cc1OC)C(CC#N)=NC(C)(C)C2 | 0.431 |
| CCOC(=O)c1c(NC(=O)CSc2nnc(-c3cccnc3)o2)sc(C(C)=O)c1C | -2.08 |
| Cc1cc(C)cc(N(CCC(=O)Nc2nnc(C)s2)S(=O)(=O)c2ccc(Cl)cc2)c1 | -0.238 |
| CN(C1CCCCC1)S(=O)(=O)c1ccccc1 | -0.282 |

| SMILES | z-score |
| --- | --- |
| COc1nc(-c2ccccc2)ccc1-c1noc(-c2ccco2)n1 | 0.332 |
| NC(=O)c1ccc(C(F)(F)F)n(Cc2cccc(Cl)c2)c1=O | -0.279 |
| CC(Sc1nc(N)c2c3c(sc2n1)CSC(C)(C)C3)C(=O)Nc1ccccc1 (stereo not given) | -0.183 |
| COC(=O)c1ccc(Oc2ccc(C(C)(C)C)cc2)c([N+](=O)[O-])c1 | -0.201 |
| Cc1ccccc1OCC(=O)NCC1CCCO1 (stereo not given) | -0.262 |
| CC1C/C(=C/c2cccn2C)C(=O)/C(=C/c2cccn2C)C1 (stereo not given) | -0.236 |
| COC(=O)c1coc(-c2ccc(OC)cc2)c1C(=O)OC | 1.66 |
| CCOC(=O)Cc1csc(NC(=O)NC2(C(F)(F)F)Oc3cc(Cl)c(Cl)cc3O2)n1 | -0.159 |
| CC1CCCCN1S(=O)(=O)c1ccc2c(c1)oc(=O)n2CC(=O)O (stereo not given) | -0.535 |
| CCCC(C)NC(=O)c1cc(C(=O)OC)cc([N+](=O)[O-])c1 (stereo not given) | 0.235 |
| CSc1nc2ccccc2cc1/C=C(\C#N)c1cccc(C)c1 | active: 3.99 |
| CCC(C)(C)n1nnnc1C(C(C)C)N(Cc1ccco1)Cc1cc2cc3c(cc2[nH]c1=O)OCO3 (stereo not given) | -0.127 |
| O=C(NC1CCCCC1)NC1CCN(C(=S)NCc2ccco2)CC1 | -0.105 |
| Cc1cc(C(=O)CSc2nnc(N)s2)c(C)n1CCc1ccc(F)cc1 | 0.907 |
| O=C(Nc1ccc(Cl)cc1C(F)(F)F)c1ccc(Cl)cc1 | -0.364 |
| Cc1ccc(-c2nc(CS(=O)CC(=O)N3CCN(c4ncccn4)CC3)c(C)o2)cc1 (stereo not given) | -0.123 |
| CC(=O)c1cn(CC(=O)NCC2CCCO2)c2ccccc12 (stereo not given) | -0.101 |
| CCOC(=O)c1c(C)n(C)c2ccc(OC(C)=O)cc12 | -0.514 |
| CCOCCCNS(=O)(=O)c1ccc(-n2cnnn2)c(OC)c1 | -0.52 |
| CCN(CC)C1CCCCC1NS(=O)(=O)c1ccc(Cl)cc1 (stereo not given) | -0.494 |
| CCOc1ccc(-c2c(=O)n(OCc3ccccn3)c3ccccc3[n+]2[O-])cc1 | 0.0236 |
| COCCn1c(=O)c2c3c(sc2n(CC(N)=O)c1=O)CCCC3 | -0.12 |
| CCN(CC)C(=O)CSc1nc2ccc(NC(=O)CSc3nnc(COc4ccccc4C)n3C)cc2s1 | -0.166 |
| C/C(=N/N1CCN(c2ccccn2)CC1)c1ccc([N+](=O)[O-])cc1 | -0.472 |
| COc1ccc(-n2c(C)cc(C(=O)Cn3nc(C(=O)O)c4ccccc4c3=O)c2C)cc1 | -0.162 |
| C=CCn1c2ccccc2c2nnc(SCC(=O)NC(C(=O)OC)C(C)C)nc21 (stereo not given) | -0.138 |
| CCCCCSc1nc2c(cnn2-c2ccccc2)c(=O)[nH]1 | -1.02 |
